{
  "source": "PubChem BioAssay AID686978",
  "about": "(National Center for Advancing Translational Sciences (NCATS), 2013)",
  "note": "Out of some 420,000 compounds screened, about 64,000 (15%) were called active. Inconclusive results, whose numbers are uncertain, are shown with a selection of clear calls. Calls come from the whole dose curve; as a rule, active = well fitted inhibition curve with a large enough effect; inconclusive = small, poorly fitted or top-dose-only effect; inactive = flat fitted curve, though single readings scatter. No potency is given beside an inconclusive call; the fits are too rough. % is set by controls: 0 for no effect and ±100 for the full control effect; potency is the fitted concentration of half-maximal effect; tags give direction and shape of the fitted curve.",
  "data": [
    {"assay": "qHTS for Inhibitors of human tyrosyl-DNA phosphodiesterase 1 (TDP1): qHTS in cells in absence of CPT; note: nearly all actives have a fitted effect of over 55% in size", "details": "DT40 Tdp1-/- hTDP1 cells, no CPT, ATP luminescence, 48 h; activity change, negative = growth inhibition: at 46.2 µM (top of the series) unless noted", "summary_of_the_method": "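Growth kinetics read by CellTiter-Glo luminescence after ≥48 hr at 37 °C. Cells: DT40 Tdp1-/- stably carrying human TDP1, 400 per well, compound exposure in the absence of CPT (DMSO vehicle).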", "values": [
      {"smiles": "CCOC(=O)C1CCCCN1C(=O)CCc1nnc(-c2ccc3c(c2)OCO3)o1", "note": "(configuration not stated)", "activity change, negative = growth inhibition": "inactive: -24.7%"},
      {"smiles": "CC(C)c1ccc(NC(=O)C2CCN(S(=O)(=O)c3ccc4c(c3)NC(=O)CO4)CC2)cc1", "Potency": "active: 23.1 µM"},
      {"smiles": "O=C1Nc2ccccc2/C1=N/N=C/c1cccc(O)c1", "Potency": "inconclusive [inhibitor, single point]"},
      {"smiles": "COc1ccc(-c2noc(CNS(=O)(=O)c3ccccc3)n2)cc1", "Potency": "inconclusive [inhibitor, single point]"},
      {"smiles": "CCOC(=O)C1CCN(C2CCN(Cc3nc(-c4ccccc4)no3)CC2)CC1", "Potency": "inconclusive [inhibitor, partial curve, poor fit]"},
      {"smiles": "Cc1cc(C(=O)COc2ccccc2C(N)=O)c(C)n1C", "Potency": "inconclusive [inhibitor, partial curve, poor fit]"},
      {"smiles": "COc1cc(OC)cc(-c2c(-c3ccc(F)cc3)c3cc(-c4ccc5cc[nH]c5c4)ccc3n2C)c1", "Potency": "inconclusive [inhibitor, single point]"},
      {"smiles": "COC(=O)c1ccc(-c2ccc(/C=N/N3C(=O)C4C5C=CC(C6CC56)C4C3=O)o2)cc1", "note": "(configuration not stated)", "Potency": "active: 18.4 µM"},
      {"smiles": "COc1ccccc1NC(=S)N1CCC(c2nc3ccccc3o2)CC1", "Potency": "inconclusive [inhibitor, single point]"},
      {"smiles": "Cc1nc(-c2ccc(Cl)cc2)sc1CCNC(=O)c1cccs1", "Potency": "inconclusive [inhibitor, single point]"},
      {"smiles": "Clc1ccccc1N1CCN(Cc2ccco2)CC1", "Potency": "inconclusive [inhibitor, single point]"},
      {"smiles": "COCCCN1C(=O)c2ccc(C(=O)N3CCN(c4ccccc4OC)CC3)cc2C1=O", "activity change, negative = growth inhibition": "inactive: 16.3%"},
      {"smiles": "Cc1ccc(Nc2c(-c3ccc(O)cc3)nc3cccc(C)n23)cc1", "Potency": "inconclusive [inhibitor, single point]"},
      {"smiles": "CCOC(=O)N(C)c1c(CC)nc2c(OCc3ccc(C(F)(F)F)cc3)cccn12", "Potency": "active: 13 µM"},
      {"smiles": "CCC[C@@H]1CCCO[C@@](C(=O)NCc2cc(C)n(C)n2)(C(F)(F)F)C1", "Potency": "inconclusive [inhibitor, single point]"},
      {"smiles": "CC(=O)Nc1nonc1-c1nnc(SCC(=O)Nc2cc(C)cc(C)c2)n1-c1ccccc1", "Potency": "inconclusive [inhibitor, single point]"},
      {"smiles": "C(C#CCN1CCOCC1)#CCN1CCOCC1", "activity change, negative = growth inhibition": "inactive: -22.6%"},
      {"smiles": "CCCOc1ccc(-c2nc(SC)[nH]c(=O)c2C#N)cc1OC", "Potency": "inconclusive [inhibitor, single point]"},
      {"smiles": "Cc1ccc(N=CC2=C(O)CC(c3ccco3)CC2=O)cc1", "note": "(configuration not stated)", "activity change, negative = growth inhibition": "inactive: -10.9%"},
      {"smiles": "COC(=O)c1ccc2nc(-c3cccc(Br)c3)c(CC3CCCCC3)n2c1", "Potency": "inconclusive [inhibitor, partial curve, poor fit]"},
      {"smiles": "CN1CCN(C(=O)c2ccc(-c3ccc(F)c(F)c3)c3ccoc23)CC1", "Potency": "active: 16.4 µM"},
      {"smiles": "O=C(COC(=O)c1cc[n+]([O-])cc1)Nc1ccc(Cl)cc1Cl", "activity change, negative = growth inhibition": "inactive: -9.9%"},
      {"smiles": "C=CCNC(=O)c1ccccc1NC(=O)Cc1ccccc1[N+](=O)[O-]", "activity change, negative = growth inhibition": "inactive: -4.99%"},
      {"smiles": "O=C(CNC(=O)c1ccccc1Cl)N/N=C/c1ccc2c(c1)OCO2", "Potency": "inconclusive [inhibitor, single point]"},
      {"smiles": "O=c1nc(N/N=C/C=C/c2ccccc2)cn[nH]1", "Potency": "active: 8.2 µM"},
      {"smiles": "CC1CCN(C(=O)/C=C/c2ccc(C(C)(C)C)cc2)CC1", "Potency": "active: 20.6 µM"},
      {"smiles": "O=C(/C=C/c1ccccc1)N/C(=C/c1ccccc1)C(=O)Nc1cccc(C(=O)O)c1", "activity change, negative = growth inhibition": "inactive: -9.57%"},
      {"smiles": "COc1cccc(/C=N/NC(=O)CNC(=O)/C=C\\c2ccccc2)c1O", "Potency": "active: 2.06 µM"},
      {"smiles": "CCOC(=O)Cc1cc(=O)n2[nH]c(C)c(-c3ccccc3)c2n1", "activity change, negative = growth inhibition": "inconclusive: -36.2% [inhibitor]"},
      {"smiles": "CCOc1ccc(C2C(C#N)=C(N)Oc3n[nH]c(C)c32)cc1OC(=O)C1CC1", "note": "(configuration not stated)", "activity change, negative = growth inhibition": "inactive: -17.2%"},
      {"smiles": "Cc1nn2c(NCc3ccccn3)cc(C(C)C)nc2c1-c1ccccc1", "Potency": "inconclusive [inhibitor, single point]"},
      {"smiles": "CCc1nnc(NC(=O)CCN(c2cc(C)cc(C)c2)S(=O)(=O)c2ccc(Cl)cc2)s1", "Potency": "active: 18.4 µM"},
      {"smiles": "CCCC1CCc2c(sc(N)c2C(N)=O)C1", "note": "(configuration not stated)", "Potency": "active: 20.6 µM"},
      {"smiles": "CCOC(=O)c1c(CN2CCN(CCO)CC2)n(C)c2cc(Br)c(OC)cc12", "Potency": "inconclusive [inhibitor, single point]"},
      {"smiles": "O=C(c1ccc2c(c1)N(Cc1ccccc1)C(=O)c1ccccc1S2(=O)=O)N1CCCCCC1", "Potency": "inconclusive [inhibitor, single point]"},
      {"smiles": "O=c1cc(O)c(-c2ccc(Cl)cc2)c(Cl)[nH]1", "activity change, negative = growth inhibition": "inactive: 5.97%"},
      {"smiles": "CCOc1ccc2oc(C(=O)NC3CC(C)(C)NC(C)(C)C3)c(C)c2c1", "Potency": "inconclusive [inhibitor, single point]"},
      {"smiles": "NS(=O)(=O)c1ccc(CNC(=O)CNC(=O)c2ccc(Br)o2)cc1", "activity change, negative = growth inhibition": "inactive: -2.46%"},
      {"smiles": "CCOc1ccc(CNCc2c(C(=O)O)n(Cc3ccc(C)cc3)c3cc(C)ccc23)cc1", "Potency": "inconclusive [inhibitor, single point]"},
      {"smiles": "Cc1c(Cl)cccc1NC(=O)CN(CCc1ccccc1)S(=O)(=O)c1ccccc1", "Potency": "inconclusive [inhibitor, single point]"},
      {"smiles": "CSc1ccccc1NC(=O)C1CC(c2ccccc2O)=NO1", "note": "(configuration not stated)", "activity change, negative = growth inhibition": "inconclusive: -30.8% [inhibitor]"},
      {"smiles": "C=CCNCCCOc1ccc(Cl)cc1C(C)(C)C", "Potency": "inconclusive [inhibitor, single point]"},
      {"smiles": "COc1cccc(NC(=O)[C@@H]2CCCN2C(=O)[C@@H]2Cc3ccccc3CN2C(=O)OC(C)(C)C)c1", "activity change, negative = growth inhibition": "inactive: 2.4%"},
      {"smiles": "COc1ccc(C(=O)N(C)CCCC2CCCC2)cc1OC1CCN(C(C)=O)CC1", "Potency": "active: 16.4 µM"},
      {"smiles": "CCCC(=O)Nc1nnc(Sc2ccc(N(C)C)cc2)s1", "Potency": "inconclusive [inhibitor, full curve]"},
      {"smiles": "Cc1ccc(-c2nc(CCN3C(=O)c4ccccc4C3=O)cs2)cc1", "activity change, negative = growth inhibition": "inactive: -14.5%"},
      {"smiles": "COc1cccc(CNc2cc(C)ccn2)c1O", "activity change, negative = growth inhibition": "inconclusive: -30.7% [inhibitor]"}
    ]}
  ]
}
